Some of the results follow.
Test system: PfSIP2 AP2 domain 1 (GST-tagged)
Assay: gcPBM binding intensity (ln(normalized median fluorescence intensity)); higher = stronger DNA binding
Outline: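 An Agilent 4 × 180k array carrying primer-extended double-stranded 36-bp intergenic genomic probes and negative controls received GST-tagged P. falciparum DNA-binding domains expressed in E. coli, about 25 μg on average, for 1 h. The binding buffer contained 1× PBS, 1% milk, 0.2 mg/ml BSA, 0.5% salmon testes DNA and 0.03% Triton X-100. Binding intensity is the top Masliner-normalised natural-log median intensity across replicate spots of either probe orientation, read after Alexa488 anti-GST antibody staining and a 488 nm scan.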

Sequence	gcPBM binding intensity (ln)
TGGCAAAATAGGCACACACACATATACAGATATATT [CACACA_site4727]	7.09
TCAATGAAATTAATATGTACATATTTTTATATAGTA [XGTACX_site7955]	6.98
AAAACTATAAAAATTTTACACACTGTTTTTAAATAA [CACACA_site3667]	6.88
TTTTTTTTTTTTTTTTGTACATATACATATATATAT [XGTACX_site1981]	8.5
AGTAGCAAATATTAAGTGCATATTATATAATGTGTA [GTGCAC_site9546]	8.2
ATAAATATGGCAGTACGTACGTATATTCATATTCAT [XGTACX_site8042]	6.99
ATTAAAAAAAAAAAAAAAAAACAAAAAAAAAAAAAA [CACACA_negctrl_site1187]	6.89
TGTTCAGTATGGCACACACACAACAAAATAAAAAAA [CACACA_site4368]	7.11
GGTTTACCCTATAAATGTACTCATAAATTATATATA [XGTACX_site5771]	6.99
ATACGAAATAGAAACACACATACAATAAATAAATAT [CACACA_site2017]	7
AAAAAAAACAGACACACACACATTCAATATAAAACA [CACACA_site41]	7
ATATCTTATATTATCACACACACACCCACAAAACAG [CACACA_site1464]	8.11
ATGATATGGATAAATACACACAATATAATAATGGGT [CACACA_site4905]	7.04
ATTTTATATATGTGTTGTACGGTGAACATTTTGATA [XGTACX_site6538]	6.95
ATATGTATAAATATAAATATATATATATATATATAT [CACACA_negctrl_site705]	9.63
ACGTTAATATCTACAAGTACCCACATTAACAGGAAA [XGTACX_site2616]	7.33
TATATAAACATCGGTAGTACACACATTCATGTATTT [XGTACX_site6443]	7.14
GGATCATTTTTAAAGGAACACACAAAAAAAATTATA [CACACA_site8381]	6.92
TTTTTTTTGAAGAATACATGCATATTTTCTATATTC [TGCATGCA_site43]	6.74

Sequence	gcPBM binding intensity (ln)
ATATAAAATATGTATGAGGAATAAAATTAAAAAAAA [XGTACX_negctrl_site173]	6.77
ACAATATGCAAAAAGTGTACACATTCATTTATATAA [XGTACX_site1061]	7.54
AATATACAAATAAAGGTGCGAGATATTTTTACTTTT	9.54
ATAAAAAAAGATGAACGTACATATATTTTAAAAATC [XGTACX_site5950]	7.11
TATTAAATATATATTACATGCAAAAAAAAAAAACAA [TGCATGCA_site705]	7.13
GTAAATATTTGTTGGGTGCTATCAATTATTTCAAAG	8.04
TGCGGAAATAAGTGCACACATAGATATATGTATTTT [CACACA_site3689]	10.8
ATATTATATATGTATAGTACATATTATAAGAAAAAT [XGTACX_site3457]	7
ATCTATATCTATAATACACACATCATAAAATATGTA [CACACA_site7230]	7.19
ATATATATTAATAATGCATGTGATATAAATTAATAT [TGCATGCA_site930]	7.26
CGGCACATTCTATATACACACATATAAATATATACA [CACACA_site566]	7.16
TACAATTCGTAATACACACACATATAAATAAATATT [CACACA_site7720]	7.28
TATTGTTATTAAAAATGTACATATAAATTTCTTATT [XGTACX_site1409]	7.02
AAAAATAAAAGGTGTGCACACAAAAATATATATATA [CACACA_site8507]	8.89
AATTTAAAAAATAACAGTACATAAAATATATACATA [XGTACX_site7917]	6.78
TGTGTATATTATATGTGTACATATCAATGTTTATAT [XGTACX_site1885]	7.26
TAATATTAAATAAATAAAATATATAATATATATATA [XGTACX_negctrl_site49]	8.33
TAATATATAACGTGCACACACACATCTACGTATGAA [CACACA_site5080]	10.2
TGGCATTAAAATTTAGTGCATATATCTTAGCATGGG	8.39

Sequence	gcPBM binding intensity (ln)
TGCAGTCTGGAGAAGAGTACACAGTATCTGGTAACA [XGTACX_site2037]	6.72
TATATATTCATATGTTGTACATAAATACAAATAAGA [XGTACX_site5602]	7.16
AAAGGTAAATGTAAATAAATAAATAATAAATATATA [GTGCAC_negctrl_site681]	6.79
ATTAATATGAATAAAACACACATATATAATTTGTAA [CACACA_site1929]	6.87
TAACTTTTATCCTTAATTCATATATAAGATTAAATC [CACACA_negctrl_site669]	6.99
ATTTTTTTTTTTTTTTTTTATATGCTCTCCATGAGA [CACACA_negctrl_site1225]	6.9
AAAAAAAAAAAGAAATGTACATGAATATTTTAAATG [XGTACX_site4069]	6.82
CATGCTACATCTTATTGTACTTATCTAATGTTAGTA [XGTACX_site1863]	6.93
AAAAAGGAGAAACACACACACACACCCATATATATA [CACACA_site905]	7.65
AGGCAATATTATATATATATATATATATATATATAT [CACACA_negctrl_site826]	9.49
TCTTTTTACACCTCTTACATAAAACAAAATAAGGGG [XGTACX_negctrl_site12]	8.02
TATACATGTTATGTACATCTAATCACACGTGCAATA [CACACA_negctrl_site1267]	7.16
TTGTAAATTTACATTTGTACATAAATATATTAATAT [XGTACX_site3969]	7.14
ATATATATAAAACACACACACACATGGTTTAAAACT [CACACA_site4219]	7.4
TGTATGTTTGGGTGCACACATAAATATTATATATAG [CACACA_site3397]	12.2
TATAAAATAAAAAATATATATATGTATATATATATA [TGCATGCA_negctrl_site163]	9.23
ATTATTTTATATACATGTACATATTATATATAAAAG [XGTACX_site2735]	7.05
CACACTTTTTAAATTAACGCATTTCAAAAAAAATAT [CACACA_negctrl_site84]	6.96

Source: the supplement of paper PMC11417369
